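Five concentrations, 48 hours, 96-well plates. GI50 is the concentration that inhibits growth by half. TGI marks complete inhibition of growth.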
Tested on: NCI-H322M lung
Test: DTP human tumour cell line panel, 48 h

| SMILES | GI50 [µM] | TGI [µM] |
| --- | --- | --- |
| COc1ccc(/C=C/C(=O)c2ccc(N3CCN(C)CC3)cc2)c(C(F)(F)F)c1 | 14.6 | 27.7 |
| CSc1ccc(NC(=O)c2ccc3nnn(/C(C#N)=C/c4ccccn4)c3c2)cc1 | 2.53 | 7.39 |
| O=C1Nc2ccc(Cl)cc2/C1=C/c1cccc(OCc2ccccn2)c1 | 15.1 | 29.9 |

Source: PubChem BioAssay (NCI)
